The text below walks through data of PubChem BioAssay AID360 (National Center for Advancing Translational Sciences (NCATS), 2006).

Out of some 48,000 compounds screened, about 550 (1.1%) were called active. Not shown: some 4% with an inconclusive outcome. Rule as the data show it: active = potency below about 15 µM; inconclusive = mostly about 16 µM to 33 µM; inactive = weaker than that. The list shows a part of the results. Where only a bound is given, the exact number is not on record here.
Potency is read from the fitted curve at half-maximal effect.

UniProt P04062, sequence (P04062 whole entry, looked up): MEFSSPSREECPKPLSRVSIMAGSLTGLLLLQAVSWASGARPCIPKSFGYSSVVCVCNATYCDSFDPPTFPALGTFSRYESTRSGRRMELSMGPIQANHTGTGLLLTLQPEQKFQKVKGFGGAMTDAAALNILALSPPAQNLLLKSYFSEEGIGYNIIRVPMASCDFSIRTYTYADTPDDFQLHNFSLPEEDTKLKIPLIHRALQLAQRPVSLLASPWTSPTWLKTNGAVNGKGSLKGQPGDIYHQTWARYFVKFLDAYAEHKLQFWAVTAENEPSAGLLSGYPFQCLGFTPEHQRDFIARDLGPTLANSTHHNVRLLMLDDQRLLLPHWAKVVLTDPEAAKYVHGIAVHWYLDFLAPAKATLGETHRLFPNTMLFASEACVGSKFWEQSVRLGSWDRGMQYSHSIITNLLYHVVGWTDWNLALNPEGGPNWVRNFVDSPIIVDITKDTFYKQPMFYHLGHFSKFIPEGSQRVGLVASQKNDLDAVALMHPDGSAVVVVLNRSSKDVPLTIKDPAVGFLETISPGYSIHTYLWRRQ

The target in the experiment is Lysosomal acid glucosylceramidase (Homo sapiens) (UniProt P04062). Briefly: Glucocerebrosidase.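 Also: the screen sought inhibitors.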 Conditions: purified enzyme, resorufin glucoside fluorescence (screen aimed at inhibitors), 20 min; series mostly up to 77 µM. The procedure, abridged:
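Wild-type enzyme at 0.2 nM final in 50mM citric acid/KH2PO4, 10mM sodium taurocholate, 0.01% tween-20, pH 5.9, with resorufin beta-D-glucopyranoside at 30 uM final. Compounds titrated, 20 min at RT, red fluorescence read; AC50 from titration.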
For the molecule `CCOc1ccc(C2=[N+]([O-])C(C)(C)N(O)C2(C)C)cc1`, the Potency was inactive: > 76.9 µM.
`COc1ccccc1C(=O)NCCc1nc2ccccc2[nH]1`: the Potency is inactive: > 76.9 µM.
To `CC(C)C(NS(=O)(=O)c1ccc2c(c1)OCCO2)C(=O)NCCc1ccccn1` (stereo not drawn) belongs inactive: > 76.9 µM; to `Cc1ccc(S(=O)(=O)Nc2nncs2)cc1`, inactive: > 76.9 µM.
To `Cc1ccc(-c2[nH]c(=O)n3ccncc23)s1` belongs inactive: > 76.9 µM; to `COc1ccc(N2CCN(C(=O)Cn3nnc(-c4ccc(OC)c(OC)c4)n3)CC2)cc1`, inactive: > 76.9 µM.
To `O=C(c1ccccc1F)N(Cc1ccc(F)cc1)C1CCS(=O)(=O)C1` (stereo not drawn) belongs inactive: > 76.9 µM; to `CC(C)(C)c1cc(C(=O)N2CCc3ccccc32)ccn1`, inactive: > 76.9 µM; to `CCCCCCOC(=O)C(C#N)c1nc2ccccc2nc1N1CCCCC1` (stereo not drawn), inactive: > 76.9 µM.
`CCOC(=O)C1CCN(C(=O)CSC2=NCCS2)CC1`: the Potency was inactive: > 76.9 µM.
To `CC(O)CNC(=O)C1CCN(Cc2ccc(OCc3ccccc3)cc2)CC1` (stereo not drawn) belongs inactive: > 76.9 µM.
To `Cc1cc(=O)oc2cc(OCC(=O)N3CCCc4ccccc43)ccc12` belongs inactive: > 76.9 µM; to `O=C(CSc1ccc(Cl)cc1)c1ccco1`, inactive: > 76.9 µM.
Then `COc1ccc(CCNC(=O)CN2CCC(C(N)=O)CC2)cc1`, with inactive: > 76.9 µM.
As to `COc1cc(S(=O)(=O)N2CCN=C2c2ccccc2)ccc1F`, the Potency was inactive: > 76.9 µM.
Then `Cc1cc(C(=O)Nc2ccon2)cs1`, with inactive: > 76.9 µM.
In the case of `CC(C)OC(=O)CC(=O)CSc1nc2c(cc1C#N)CCCC2`, the Potency entry was “inactive”.
To `CS(=O)(=O)N1CCCC(C(=O)NCCN2CCC(Cc3ccccc3)CC2)C1` (stereo not drawn) belongs inactive: > 76.9 µM; to `Cn1c(NCc2ccco2)nc2c1c(=O)n(Cc1ccc(Br)cc1)c(=O)n2C`, inactive: > 76.9 µM; to `COc1ccccc1-c1nc(NC(C)=O)n[nH]1`, inactive: > 76.9 µM.
Regarding `COc1cc(NC2c3ncccc3C(=O)N2Cc2ccco2)cc(OC)c1` (stereo not drawn), the Potency was inactive: > 76.9 µM.
On to `COc1ccc(Cl)cc1N(CC(=O)Nc1ccccc1C(=O)NCc1ccco1)S(C)(=O)=O`, for which the Potency was inactive: > 76.9 µM.
`CC1=CCC2C(=O)N(c3ccc4ccccc4n3)C(=O)C2C1` (stereo not drawn): the Potency was inactive: > 76.9 µM.
Then `Nc1ccc(-n2nnnc2-c2ccco2)cc1`, with inactive: > 76.9 µM.
To `CCOc1ccc(NC(=O)CC2CC(C)(C)OC2=O)cc1` (stereo not drawn) belongs inactive: > 76.9 µM; to `O=C(c1cn(-c2ccccc2)nc1-c1ccncc1)N1CCCCC1`, inactive: > 76.9 µM; to `Cn1c(SCC(=O)Nc2ccc3c(c2)oc2ccccc23)nnc1-c1ccccc1`, inactive: > 76.9 µM.
To `CCN1C(=O)CC(C(=O)Nc2ccc(F)cc2)SC1=Nc1ccc2c(c1)OCO2` (stereo not drawn) belongs “inactive”; to `Cc1ccc(-c2nnn(CC(=O)N(c3cccc(O)c3)C(C(=O)NC(C)(C)C)c3cccs3)n2)o1` (stereo not drawn), inactive: > 76.9 µM; to `CN(C)c1nc2n(c(=O)n1)CCO2`, inactive: > 76.9 µM.
Turning to `CCN(CC)CCCNC(=O)C1c2ccccc2C(=O)N(C)C1c1ccc(OC)cc1` (stereo not drawn), the Potency is inactive: > 76.9 µM.
Then `CCc1nc(SCC(=O)Nc2cc(C)on2)c2c(C)c(C)sc2n1`, with inactive: > 76.9 µM.
Then `CCOc1ccc2[nH]c(=O)c(CN(CCN3CCOCC3)Cc3nnnn3C(C)(C)CC)cc2c1`, with inactive: > 76.9 µM; and `CC(C)n1c(SCc2ccc(Cl)cc2)nc2c1c(=O)[nH]c(=O)n2C`, with inactive: > 76.9 µM; and `NCCCCCc1nnc(SC/C=C/c2ccccc2)o1`, with inactive: > 76.9 µM.
As for `CCn1c(CSc2nnc(-c3ccc4c(c3)OCO4)o2)nc2cc(S(=O)(=O)N(C)C)ccc21`, the Potency is inactive: > 76.9 µM.
On to `CC1CCN(C(=O)CCNS(=O)(=O)c2ccccc2)CC1`, for which the Potency was inactive: > 76.9 µM.
Then `Cc1cc(C)n(-c2nc(SCC(=O)N3CCCC3)c3c4c(sc3n2)CCCC4)n1`, with inactive: > 76.9 µM; and `COC(=O)C1CCN(S(C)(=O)=O)CC1`, with inactive: > 76.9 µM.
To `O=C(NCc1nc(-c2ccccc2)no1)c1cccs1` belongs inactive: > 76.9 µM; to `Cc1cccc(OCC(=O)Nc2ccc(N3CCN(S(C)(=O)=O)CC3)cc2)c1C`, inactive: > 76.9 µM; to `CCOc1ccccc1C(=O)N1CCCCC1C` (stereo not drawn), inactive: > 76.9 µM.
To `O=S(=O)(Cc1ccccc1)N1CCC(c2nc(-c3cccs3)no2)CC1` belongs inactive: > 76.9 µM; to `CC(CN1CCN(C)CC1)OC(=O)c1ccccc1Cl` (stereo not drawn), inactive: > 76.9 µM; to `O=c1c(F)cn(C2CCCO2)c(=O)n1Cc1c(F)cccc1Cl` (stereo not drawn), inactive: > 76.9 µM.
For `O=S(=O)(c1cccc2c(S(=O)(=O)N3CCCC3)cccc12)N1CCCC1`, the Potency is inactive: > 76.9 µM.
Then `CCc1nc(SCC(=O)NCC2CCCO2)c2oc3ccccc3c2n1` (stereo not drawn), with inactive: > 76.9 µM.
To `O=C(c1cccnc1)N1CCC(c2nc3ccccc3[nH]2)CC1` belongs inactive: > 76.9 µM; to `Cc1cccc(Cl)c1OCCCCn1ccnc1`, inactive: > 76.9 µM.
Then `Nc1c(-c2ccc(Cl)cc2)nnn1-c1ccccc1`, with inactive: > 76.9 µM; and `CCN(CC)CCNC(=O)C1CCC(=O)N1CCc1ccccc1` (stereo not drawn), with inactive: > 76.9 µM.
For the molecule `Cc1ccc(C(=O)C2CCNCC2)cc1`, the Potency was inactive: > 76.9 µM.
Then `CCC(C)c1ccc(OCC(=O)O)cc1` (stereo not drawn), with inactive: > 76.9 µM; and `O=C(NCCc1ccccc1)c1cc(-c2ccc3c(c2)OCO3)on1`, with inactive: > 76.9 µM; and `O=c1c2c(nc3c(-c4cccc5ccccc45)c[nH]n13)CCC2`, with “inactive”.
Then `O=C(Nc1ccccc1Cl)c1cc(S(=O)(=O)N2CCCC(C(=O)O)C2)ccc1F` (stereo not drawn), with inactive: > 76.9 µM; and `CCSCC1COC(c2cccn2Cc2ccc(C)cc2)=N1` (stereo not drawn), with inactive: > 76.9 µM; and `C=CCn1c(SCC(=O)Nc2cc(C)ccc2OC)nnc1-c1ccco1`, with inactive: > 76.9 µM.
`Cn1nnc(NC(=O)c2ccco2)n1`: the Potency was inactive: > 76.9 µM.
To `Cc1nnc(SCC(=O)N2CCCCC2)s1` belongs inactive: > 76.9 µM; to `COc1cc2c(cc1NC(=O)CN1C(=O)NC3(CCc4ccccc43)C1=O)oc1ccccc12` (stereo not drawn), inactive: > 76.9 µM; to `N#CC1=C(N)OC2=C(CCC/C2=C/c2ccoc2)C1c1ccoc1` (stereo not drawn), inactive: > 76.9 µM.
Then `CCN(CC)c1ccc(CN(C(=O)c2cc(OC)c(OC)c(OC)c2)C2CCS(=O)(=O)C2)cc1` (stereo not drawn), with inactive: > 76.9 µM; and `C=C(C)COc1ccc(-c2[nH]ncc2Oc2ccccc2OC)c(O)c1`, with inactive: > 76.9 µM; and `O=C(Nc1ccc(S(=O)(=O)NCCc2ccccc2)cc1)c1ccco1`, with inactive: > 76.9 µM.
To `Cc1ccc(C(=O)CC2(O)C(=O)N(Cc3ccccc3Cl)c3ccccc32)o1` (stereo not drawn) belongs inactive: > 76.9 µM.
For the molecule `COc1ccc(CC(=O)N2CCN(C(=O)c3ccco3)CC2)cc1`, the Potency is inactive: > 76.9 µM.
To `Cc1ccccc1CS(=O)(=O)CCC(=O)NCc1ccccn1` belongs inactive: > 76.9 µM; to `CC1(C)CC(=O)C(C=NCc2ccc3c(c2)OCO3)=C(O)C1`, inactive: > 76.9 µM; to `CCCC(=O)Nc1ccc2c(c1)nc1n2CCSC1`, inactive: > 76.9 µM.
To `CNC(=O)CN(C#N)c1nc(N(C)C)nc(N(C)C)n1` belongs inactive: > 76.9 µM; to `COc1cccc(-c2nnc(N(C)C(=O)C3CCOC3)s2)c1` (stereo not drawn), inactive: > 76.9 µM.
To `O=c1c2c(n3nnnc3n1-c1ccccc1)-c1ccccc1CC21CCCC1` belongs inactive: > 15.4 µM.
Take `CC/C(=C\C(=O)c1cccnc1)Nc1ccc(C)c(C)c1`: the Potency is inactive: > 76.9 µM.
For `CC(=O)Nc1cccc(NC(=O)C2CCCN2C(=O)Nc2ccc(C)cc2)c1` (stereo not drawn), the Potency is inactive: > 76.9 µM.
To `CC1Cc2nc(SCC(=O)NC3CCCCC3)n(C)c(=O)c2S1` (stereo not drawn) belongs inactive: > 76.9 µM.
Then `COc1ccc(S(=O)(=O)Nc2c(C(=O)O)[nH]c3ccccc23)c(OC)c1`, with inactive: > 76.9 µM; and `O=C(Cc1cccs1)Nc1ccon1`, with inactive: > 76.9 µM; and `CCC(C)NC(=O)c1ccccc1NC(=O)C(C)N(c1ccccc1)S(C)(=O)=O` (stereo not drawn), with inactive: > 76.9 µM.
To `CCCCN1C(=O)c2ccc(C(=O)Nc3cccnc3)cc2C1=O` belongs inactive: > 76.9 µM; to `Cn1c(SCc2cccnc2)nc2cccnc21`, inactive: > 76.9 µM.
In the case of `Cc1cc(C)n2nc3nc(N4CCCCC4)nc(-c4ccco4)c3c2n1`, the Potency is inactive: > 76.9 µM.
Then `CC(C(=O)N=c1sc2ccccc2n1C)N1C(=O)C2CC=CCC2C1=O` (stereo not drawn), with inactive: > 76.9 µM; and `CCOC(=O)Cc1csc(NC(=O)CCS(=O)(=O)Cc2ccccc2)n1`, with inactive: > 76.9 µM; and `COc1ccc(N=C2SC(CC(=O)Nc3ccc(OC)cc3OC)C(=O)N2C)cc1` (stereo not drawn), with inactive: > 76.9 µM.
Then `CCCCn1c(=O)c(-c2ccccc2)c(O)c2ccccc21`, with inactive: > 76.9 µM.
Then `FC(F)Sc1nnc(-c2cccs2)n1-c1ccccc1`, with inactive: > 76.9 µM; and `Cc1ccc2ncccc2c1NS(=O)(=O)c1ccccc1`, with inactive: > 76.9 µM; and `CSCC[C@H](NC(=O)OC(C)(C)C)C(=O)N1CCC(C(=O)N[C@@H](C)C(=O)O)CC1`, with inactive: > 76.9 µM.
As to `O=C(c1cc2ccccc2o1)c1cccs1`, the Potency was inactive: > 76.9 µM.
Then `CCOC(=O)c1ccc(N2C(=O)CC(N3CCN(C(=O)c4ccco4)CC3)C2=O)cc1` (stereo not drawn), with inactive: > 76.9 µM; and `CC1CN(C(=O)CN2C(=O)NC(C)(c3ccccc3)C2=O)CC(C)O1` (stereo not drawn), with inactive: > 76.9 µM.
To `Cc1ccnc(NS(=O)(=O)c2ccccc2)n1` belongs inactive: > 76.9 µM.
